From the supplement of paper PMC9174493
This is one part of the list. Single values of this set are uncertain. Values with irradiation are relative to irradiated vehicle.

What was measured:
A549-Dual [1] = assay: NF-kB reporter (SEAP) activity, viability-corrected, relative to vehicle (fold change vs vehicle); higher = more activation of STING-IRF / NF-kB immune response reporter
A549-Dual [2] = assay: ISRE reporter (Lucia luciferase) activity, viability-corrected, relative to vehicle (fold change vs vehicle); higher = more activation of STING-IRF / NF-kB immune response reporter
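Wherever NF-kB reporter (SEAP) activity, viability-corrected, relative to vehicle is given: viability correction based on the alamar blue assay, with concentrations leaving 10% survival or less dropped.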

SMILES | NF-kB reporter (A549-Dual [1]; 0.1 µM, irradiation: 8 Gy/4 fr) | NF-kB reporter (A549-Dual [1]; 0.1 µM, irradiation: none) | NF-kB reporter (A549-Dual [1]; 0.3 µM, irradiation: 8 Gy/4 fr) | NF-kB reporter (A549-Dual [1]; 0.3 µM, irradiation: none) | NF-kB reporter (A549-Dual [1]; 1 µM, irradiation: 8 Gy/4 fr) | NF-kB reporter (A549-Dual [1]; 1 µM, irradiation: none) | NF-kB reporter (A549-Dual [1]; 3 µM, irradiation: 8 Gy/4 fr) | NF-kB reporter (A549-Dual [1]; 3 µM, irradiation: none) | NF-kB reporter (A549-Dual [1]; 10 µM, irradiation: 8 Gy/4 fr) | NF-kB reporter (A549-Dual [1]; 10 µM, irradiation: none) | ISRE reporter (A549-Dual [2]; 0.1 µM, irradiation: 8 Gy/4 fr) | ISRE reporter (A549-Dual [2]; 0.1 µM, irradiation: none) | ISRE reporter (A549-Dual [2]; 0.3 µM, irradiation: 8 Gy/4 fr) | ISRE reporter (A549-Dual [2]; 0.3 µM, irradiation: none) | ISRE reporter (A549-Dual [2]; 1 µM, irradiation: 8 Gy/4 fr) | ISRE reporter (A549-Dual [2]; 1 µM, irradiation: none) | ISRE reporter (A549-Dual [2]; 3 µM, irradiation: 8 Gy/4 fr) | ISRE reporter (A549-Dual [2]; 3 µM, irradiation: none) | ISRE reporter (A549-Dual [2]; 10 µM, irradiation: 8 Gy/4 fr) | ISRE reporter (A549-Dual [2]; 10 µM, irradiation: none)
Nc1ccc(O)c(C(=O)O)c1 [Mesalamine] | 0.742 | 0.974 | 0.892 | 1.03 | 1.13 | 0.864 | 1.13 | 0.851 | 0.884 | 0.936 | 0.773 | 0.901 | 0.72 | 0.821 | 0.699 | 0.75 | 0.781 | 0.794 | 0.795 | 0.906
CN1CCC(=C2c3ccccc3C=Cc3ccccc32)CC1.Cl [Cyproheptadine hydrochloride] | 1.03 | 1.01 | 1.11 | 0.884 | 1.17 | 0.828 | 1.21 | 0.89 | 0.71 | 0.866 | 0.879 | 0.893 | 0.929 | 0.826 | 0.939 | 0.865 | 1 | 0.894 | 1.1 | 1.23
COc1cc(C2c3cc4c(cc3C(OC3OC5COC(C)OC5C(O)C3O)C3COC(=O)C23)OCO4)cc(OC)c1O (stereo not given) [Etoposide] | 1.14 | 1.58 | 1.33 | 1.68 | 1.02 | 1.2 | 1.04 | 1.19 | 0.858 | 1.32 | 1 | 4.09 | 1.12 | 3.83 | 0.663 | 2.47 | 0.593 | 2.55 | 0.484 | 2.7
CC(C)C(=O)Nc1ccc([N+](=O)[O-])c(C(F)(F)F)c1 [Flutamide] | 0.892 | 0.988 | 0.98 | 1.01 | 0.791 | 0.912 | 0.896 | 0.828 | 0.858 | 0.949 | 1.03 | 0.904 | 1.04 | 1 | 0.785 | 0.967 | 0.771 | 0.67 | 0.8 | 0.846
Nc1nc(F)nc2c1ncn2C1OC(COP(=O)(O)O)C(O)C1O (stereo not given) [Fludarabine Phosphate] | 1.17 | 1.07 | 1.44 | 1.07 | 1.19 | 1.17 | 1.26 | 0.872 | 0.887 | 0.92 | 0.957 | 1.02 | 1.43 | 1.09 | 1.1 | 0.829 | 1.12 | 0.877 | 0.911 | 0.901
CC(=O)O.CCNC(=O)C1CCCN1C(=O)C(CCCNC(=N)N)NC(=O)C(CC(C)C)NC(=O)C(CC(C)C)NC(=O)C(Cc1ccc(O)cc1)NC(=O)C(CO)NC(=O)C(Cc1c[nH]c2ccccc12)NC(=O)C(Cc1c[nH]cn1)NC(=O)C1CCC(=O)N1 (stereo not given) [Leuprolide Acetate] | 1.05 | 1.13 | 1.1 | 0.982 | 0.887 | 1.45 | 0.983 | 1.3 | 0.975 | 1.06 | 1.17 | 1.06 | 1.23 | 1.04 | 1.1 | 1.16 | 1.12 | 0.897 | 1.13 | 1.17
